Where “and” joins values, the source holds several entries; their conditions need not be identical. Equal entries are not always repeated.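 Where inhibition never reached the appropriate level, the endpoint shown equals the highest concentration tested. Otherwise, values were interpolated linearly from a five-concentration, 48-hour dose response in 96-well plates. GI50: concentration for 50% inhibition of growth. Definition used: TGI = concentration required for complete inhibition of growth.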 Calls of active or inactive are those of the source. No stated cut-off is given here; in the data, active means GI50 below about 0.43 µM; inactive means the rest.
Test system: NCI-H322M lung
Assay: NCI-60 cell line screen, 48 h

Row | SMILES | GI50 | TGI [µM] | outcome
1 | O=C(/C=C/c1ccc(Cl)cc1)c1ccc(Nc2nc(Nc3ccc(F)cc3)nc(Nc3ccc(F)cc3)n2)cc1 | > 100 µM | > 100 | 
2 | COc1cc(/C=N/n2c(-c3ccccc3)n[nH]c2=O)cc(OC)c1OC |  | > 100 | 
3 | CC(=O)OC1C2CCC1C1C2N=NN1c1ccc([N+](=O)[O-])cc1 (stereo unspecified) |  | > 100 | 
4 | O=S1(=O)OCCOS(=O)(=O)C1(Br)Cc1ccccc1 |  | > 100 | 
5 | CC12CP(=O)(c3ccccc3)CC1c1ccccc1C2c1ccccc1 (stereo unspecified) |  | > 100 | 
6 | C=CCOC(C)n1c(C)cc(=O)n(C(C)OCC=C)c1=O (stereo unspecified) |  | > 100 | 
7 | CC/C=C/C[C@H](O[Si](C)(C)C(C)(C)C)[C@H]1C[C@H]2O[C@H]([C@@H](O)C#C[Si](C)(C)C)C[C@H]2O1 |  | 27.6 | 
8 | C/C(=C\COc1cc(O)c2c(c1)C(=O)c1cc(C)cc(O)c1C2=O)CCC1OC1(C)C (stereo unspecified) |  | > 100 | 
9 | COc1cccc2c1N[S@](=O)S2 |  | > 100 | 
10 | COC(=O)/C(=N\NC(=O)c1ccccc1O)C(C#N)c1ccccc1 (stereo unspecified) |  | > 50 | 
11 | CCOc1ccc(N=Nc2ccc3oc(=O)c(/C(C)=N/NC(=O)CC(=O)Nc4cccc(OC)c4)cc3c2)cc1 |  | 56.4 | 
12 | C=C(CNCCc1ccc(O)cc1)[C@@H]1CC[C@]2(CO)CC[C@]3(C)[C@H](CC[C@@H]4[C@@]5(C)CCC(NCCc6ccc(O)cc6)C(C)(C)[C@@H]5CC[C@]43C)[C@@H]12 (stereo partly specified) | 1.47 µM | 2.81 | 
13 | CN(C)CCCNC(=O)c1cc2/c(=C\c3ccc(N(C)C)cc3)c3ccccc3n2[n+]1C |  | 78.6 | 
14 | CCCN=Cc1c(O)c(O)c(C(C)C)c2cc(C)c(-c3c(C)cc4c(C(C)C)c(O)c(O)c(C=NCCC)c4c3O)c(O)c12 |  | 21.4 | 
15 | O=C(CSc1nc2ccccc2c2ccccc12)c1ccccc1 |  | > 100 | 
16 | O=C1C(c2c(O)[nH]c3ccc([N+](=O)[O-])cc23)=Nc2ccccc21 |  | > 100 | 
17 | CCOC(=O)N1C/C(=C/c2ccc(Cl)cc2)C(=O)/C(=C/c2ccc(Cl)cc2)C1 | 18.7 µM | 55.4 | 
18 | O=C1c2[nH]c3ccccc3c2CCN2CCCCC12 (stereo unspecified) |  | > 100 | 
19 | CCOC(=O)C1CCCCN1C(=O)OCc1ccccc1 (stereo unspecified) |  | > 100 | 
20 | COc1ccc(NC2=NCCO2)c2c1CCCC2 |  | > 100 | 
21 | COc1ccc(/C=C/C(=O)c2cc3c(N)c(C(=O)Nc4cccc(Cl)c4C)sc3nc2C)cc1 | 0.302 µM | > 50 | 
22 | CN(C)c1cc[n+](/C(NS(=O)(=O)c2cc(C(=O)Nc3ccc(Cl)cc3)c(Cl)cc2[S-])=C(\C#N)C(=O)c2ccccc2)cc1 | 33.7 µM | 98.6 | 
23 | COC(=O)CN(CC1O[C@@H]2OC(C)(C)O[C@@H]2C1N=[N+]=[N-])C(=O)OCc1ccccc1 (stereo partly specified) |  | > 100 | 

Row | SMILES | GI50 | TGI [µM] | outcome
24 | ClC(Cl)(Cl)C(N1CCN(c2ccccc2)CC1)N1CCN(c2ccccc2)CC1 |  | > 100 | 
25 | Cc1cc2nc(C#N)c(N3CCN(c4ccc([N+](=O)[O-])cc4)CC3)nc2cc1C |  | > 100 | 
26 | CCC[CH2][Sn]1([CH2]CCC)[O]C(=O)c2cccc(C)c2[O]1 | 1.7 µM | 3.14 | 
27 | CC(=O)NCCC1CNc2ccccc21 (stereo unspecified) |  | > 100 | 
28 | CCOC(=O)C1C(O)CC2c3ccccc3-c3ccccc3C21 (stereo unspecified) |  | > 100 | 
29 | CC[C@]12C=CCN3CC[C@@]4(c5cc(N=O)c(OC)cc5N(C)[C@H]4[C@@](O)(C(=O)NC(Cc4c[nH]c5ccccc45)C(=O)OC)[C@@H]1O)[C@@H]32 (stereo partly specified) |  | 28.6 | 
30 | c1coc(C2=Nc3cccc4cccc(c34)N2)c1 |  | > 100 | 
31 | COC1=C(OC)C(O)(c2ccccc2)C1=O (stereo unspecified) |  | > 100 | 
32 | Clc1ccc(OCc2nn3c(CCCCc4nnc5sc(COc6ccc(Cl)cc6Cl)nn45)nnc3s2)c(Cl)c1 | 20 µM | 72.3 | 
33 | COC1/C=C\C=C(/C)C(=O)NC2=CC(=O)C(N)=C(CC(C)CC(OC)C(O)C(C)C=C(C)C1OC(N)=O)C2=O (stereo unspecified) | 0.0173 µM |  | 
34 | c1ccc2c(c1)SC1=C(SC(=C3SC4=C(S3)Sc3ccccc3S4)S1)S2 |  | > 100 | 
35 | NCCCOc1cc2ccccc2cc1C(=O)NCCOc1nc2ccccc2cc1C(=O)Nc1ccc(Cl)cc1O | 1.57 µM | 3.02 | 
36 | CC(=O)NS(=O)(=O)c1ccc(-n2nc(-c3ccc(Cl)cc3)cc2-c2cc(O)ccc2O)cc1 | 21.4 µM | 72.6 | 
37 | O=C(Nc1ccc(OCc2nnc(-c3ccc(Cl)cc3)o2)c(F)c1)c1ccc(Cl)c(C(F)(F)F)c1 | > 50 µM | > 50 | 
38 | C[C@H](CCC(=O)O)[C@H]1CC[C@H]2[C@@H]3CC[C@@H]4C[C@H](O)CC[C@]4(C)[C@H]3CC[C@]12C | > 100 µM and 28.1 µM | > 100 | 
39 | CCOC(=O)C(=O)/C(=C/n1c(=S)[nH]c2ccc([N+](=O)[O-])cc21)C(=O)OCC |  | > 100 | 
40 | CC(C)=CCC/C(C)=C/CO |  | > 100 | 
41 | O=c1cc(-c2cc(O)c(O)c(-c3c(O)cc(O)c4c(=O)cc(-c5ccc(O)c(O)c5)oc34)c2)oc2cc(O)cc(O)c12 |  |  | inactive
42 | COc1cc2c(cc1I)-c1c(cc(OC)c(OC)c1OC)CC[C@@H]2NC(C)=O | 0.577 µM | > 91.7 | 
43 | COc1cccc(/C=N/[N-]C(=O)c2ccncc2)c1[O-].[Ni+2].[OH3+] | > 100 µM | > 100 | 
44 | CC(=O)Nc1ccc(S(=O)(=O)Nc2nc(-c3ccc(Cl)cc3)cc(N3N=C(c4ccc(Br)cc4)CC3c3ccccc3)n2)cc1 (stereo unspecified) |  | 30 | 
45 | Cc1cc2c(s1)C(N)CC2=O (stereo unspecified) |  | > 100 | 
46 | CCN(CC)CCNc1ccc2nnn3c4ccc([N+](=O)[O-])cc4c(=O)c1c23 |  | > 100 | 

Row | SMILES | GI50 | TGI [µM] | outcome
47 | CC(C)=CCC/C(C)=C/CC/C(C)=C/CC/C(C)=C/CSC[C@H](NC(=O)CCCCCN1CCN(C)CC1)C(=O)NC1CCCCC1 | 7.49 µM | 24.5 | 
48 | CC1(CO)COC(C)(C)OC1 |  | > 100 | 
49 | COc1cc2c(cc1OC)C1[C@@H](c3ccccc3)OCN1CC2 (stereo partly specified) |  | > 100 | 
50 | Cc1nc2ccccn2c1N=Nc1ccc(C(=O)NN)cc1 |  | > 100 | 
51 | [N-]=[N+]=NCCCn1c2c(c3cc4c(cc3c1=O)OCO4)C(=O)c1ccccc1-2 | 40 µM | > 100 | 
52 | COc1cc([C@@H]2c3cc4c(cc3[C@@H](Nc3ccc(N=Cc5ccc(C(=O)O[C@@H](C(=O)O[C@H]6C[C@@]7(O)[C@@H](OC(=O)c8ccccc8)[C@@H]8[C@]9(OC(C)=O)CO[C@@H]9C[C@H](O)[C@@]8(C)C(=O)[C@H](OC(C)=O)C(=C6C)C7(C)C)[C@@H](NC(=O)c6ccccc6)c6ccccc6)cc5)cc3)[C@H]3COC(=O)[C@H]23)OCO4)cc(OC)c1O |  | > 44.8 | 
53 | Cc1nn(C(=O)c2ccccc2O)c2c1C(c1ccc3ccccc3c1O)SC(N)=N2 (stereo unspecified) |  | > 10 | 
54 | COc1ccc(O)c(/C=N/NC(=S)N2CCCCC2)c1 |  | > 100 | 
55 | O=C(COc1nc2ccccc2nc1-c1ccccc1)Nc1ccc(Cl)cc1 | 42 µM | > 100 | 
56 | Cn1ccc(=O)c2c(O)c3ccccc3c(O)c21 | 38.7 µM | > 100 | 
57 | COC1=CC(=Nc2c(Cl)cc(Cl)cc2OC(=O)c2ccc([N+](=O)[O-])cc2)C=C(OC)C1=O |  | 31.1 | 
58 | O=C([O-])c1cc(I)cc(I)c1[OH2+].O=C([O-])c1cc(I)cc(I)c1[OH2+].[Mn+2] | 28.9 µM | > 100 | 
59 | Cc1cnc(-n2c(C)nc3cc(Cl)ccc3c2=O)s1 |  | > 100 | 
60 | CS(=O)(=O)O[C@H]1C(=O)N(c2cc3c4ccccc4ccc3c3ccccc23)[C@@H]1c1ccccc1 | 0.825 µM | > 100 | 
61 | Cc1[nH]c(=O)[nH]c(=S)c1C(=O)NC1C2CCCCC2NC2CCCCC21 (stereo unspecified) |  | 40.2 | 
62 | CNCCCCN(C)/[N+]([O-])=N\O |  | > 100 | 
63 | C=C1C(=O)O[C@H]2[C@H]1CC/C(COC(=O)/C=C/C(=O)NCc1ccc(Cn3c(=O)sn(-c4ccccc4)c3=O)cc1)=C\CC[C@@]1(C)O[C@@H]21 | 14.5 µM | 30 | 
64 | O=C(Nc1nc(-c2ccc(Cl)cc2)cs1)c1cc(-c2ccc(Br)cc2)nc2ccc(Cl)cc12 | 32.4 µM | > 100 | 
65 | CO[C@@H]1C[C@H](OC(N)=O)[C@@H]2C=C[C@@H]3/C=C(C)/C=C/[C@@H](C)[C@H]([C@H](C)[C@H](O)[C@@H](C)NC(C)=O)OC(=O)/C=C/C=C(C)\C=C\[C@]3(C)[C@@H]2C1 |  | 11 | 
66 | O=CN(CCN1CCCC1)C1CCc2cc(Cl)c(Cl)cc2C1 (stereo unspecified) |  | > 100 | 
67 | CC1=C(O)C(=O)C(C2=C(O)C(=O)C(C)=C(O)C2=O)=C(O)C1=O |  | > 100 | 
68 | c1ccc(C2(c3ccccc3)SSC3(S2)C2CC4CC(C2)CC3C4)cc1 (stereo unspecified) |  | > 100 | 
69 | CC(C)(C)c1ccc(C(C)(C)C)c(N2C(=O)[C@@H]3[C@@H]4C=C[C@@H](C4)[C@]3(C)C2=O)c1 |  | > 100 | 

Row | SMILES | GI50 | TGI [µM] | outcome
70 | O=C(c1nc2ccc(Cl)cc2[nH]c1=O)C(O)c1ccccc1 (stereo unspecified) |  | > 100 | 
71 | CCN(CC)Cc1cc(Nc2c3ccc(Cl)cc3nc3ccc(OC)cc23)ccc1O | 10.8 µM | 31.3 | 
72 | OC(c1ccoc1)c1cc2ccccc2s1 (stereo unspecified) |  | > 10 | 
73 | O=C(Cc1nc2ccccc2o1)C(=O)Nc1ccccc1C(F)(F)F |  | > 100 | 
74 | Cc1ccc(-n2c(=O)c3nn4c(=O)n(-c5ccc(C)cc5)c(=O)c4nn3c2=O)cc1 |  | > 100 | 
75 | COc1ccc(CC#C/C=C/C(=O)NCC(C)C)cc1 |  | > 100 | 
76 | C[n+]1c(-c2ccccc2)c2cc(N)ccc2c2ccccc21 | 6.98 µM | > 48.2 | 
77 | O=c1cc(-c2ccccc2)c2ccc(O)c(CN(CCCl)CCCl)c2o1 |  | 67.8 | 
78 | O=C(CSc1nnc(SCC(=O)NN=C2CCCCC2)s1)NN=C1CCCCC1 |  | > 100 | 
79 | CCCCCCCCCCCCCCCC/C(C(=O)OC)=C(/O)C(=O)OCC |  | > 100 | 
80 | CCOCCOC(=O)C1CCC(=O)N1CN(C(C)=O)c1cc(OC)ccc1OC (stereo unspecified) |  | > 100 | 
81 | c1ccc([P+](c2ccccc2)(c2ccccc2)c2ccc3c4ccc([P+](c5ccccc5)(c5ccccc5)c5ccccc5)c5cccc(c6cccc2c63)c54)cc1 | 2.45 µM | 27.5 | 
82 | N#Cc1c(-c2ccccc2)cc(-c2ccccc2)n(CCCC(=O)NO)c1=O | 2.47 µM | 10.6 | 
83 | Clc1ccc2c(c1)C(Br)c1cc(Cl)cc(Cl)c1-2 (stereo unspecified) | > 100 µM | > 100 | 
84 | COc1cc(OC)c2c(c1-c1ccc(C)cc1)CC(C)N(Cc1ccccc1)[C@H]2C (stereo partly specified) |  | > 100 | 
85 | Nc1nc(N)c(N=Nc2ccccc2)c(-c2ccccc2)n1 | 11.2 µM | 59.3 | 
86 | O=C1Nc2cc(Cl)ccc2C(=O)N2CCC[C@@H]12 |  | > 100 | 
87 | CC1=CC(C)(C)[C@H]2O[C@@]3(O)C[C@]4(C)[C@H]5C[C@@](C(C)C)(O[C@H]4c4ccoc4)O[C@H]4[C@]5(C3)O[C@@]1(O)[C@]24O |  | > 100 | 
88 | CCC(=O)c1cc(C(=O)C(=S)SC)cc(C(=O)C(=S)SC)c1 |  | > 100 | 
89 | O=[N+]([O-])c1ccc2c(c1)Sc1ccccc1N2 |  | > 100 | 

— PubChem BioAssay (NCI)
